Some of the results follow. Cleavage of a single-stranded DNA pool by Rep nickase domains was read by sequencing (1 h at 37 °C, 3 µM enzyme); the outer parts of the 90-letter strands are left off. A value is the log2 ratio of uncut reads to the pool without enzyme; the lower, the more was cut; hits are not called. Because reads are shares of a total, they shift together, so uncut sequences can rise above 0 when many others are cut.

The assay deals with T1, Rep nickase domain of tomato golden mosaic virus.
T1 sequence (residues 1-124 of Rep, tag left off): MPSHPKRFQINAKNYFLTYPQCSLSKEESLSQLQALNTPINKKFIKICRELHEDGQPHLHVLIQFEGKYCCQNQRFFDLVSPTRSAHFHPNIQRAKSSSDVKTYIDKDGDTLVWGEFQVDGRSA
The assay is described as follows: uncleaved DNA left, log2 of reads against the no-enzyme library (log2 ratio); higher = less cleavage (more negative = more Rep cleavage of the k-mer); sequences stand for … in CTCGTCCG…ACCGGAGA
On the procedure: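 A pool of 90-nt single-stranded DNAs with seven random bases just before the constant AC of the nick site (name = the seven bases) was cut by 3 µM recombinant His6-SUMO-tagged Rep nickase domain (300 nM DNA, 50 mM HEPES pH 8.0, 50 mM NaCl, 1 mM MnCl2, 1 h, 37 °C, three replicates). Uncut DNA was amplified and sequenced.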
With CGGAGGG, the “uncleaved DNA left (log2)” value was -0.16.

AAATCGT: the “uncleaved DNA left (log2)” value is -1.27. Then TAGCAGC, with -0.149. Then TGAAGTC, with -0.0514. The result for TTATTAA reads 0.08. As for GCCTATG, the “uncleaved DNA left (log2)” value is -0.0665.

As to GAATATA, the “uncleaved DNA left (log2)” value came out at 0.0592. With CTGACTT, the “uncleaved DNA left (log2)” value was 0.043. Then GCATCGT, with 0.0749; and AGACTTG, with -0.0556. On to TGTGAAC, for which the “uncleaved DNA left (log2)” value worked out at 0.0891.

AAATGTT: the “uncleaved DNA left (log2)” value is -4.13.

With CGGGAAA, the “uncleaved DNA left (log2)” value is -0.0927. Then TAGCTCC, with -0.0668. Take CGTGTAT: the “uncleaved DNA left (log2)” value came to 0.00307. Then CGTAGTC, with 0.0899; and CAGAATA, with -0.0607; and GTAGCCT, with 0.0569. Then AAATCCT, with -3.64; and CTCTCCT, with -0.309.

For ACTGCCA, the “uncleaved DNA left (log2)” value was 0.00722. Then GCAAGTT, with 0.0938; and TTCCTCA, with 0.0556. Then TAAGATA, with -0.091; and CACGCTA, with 0.065. The result for TAGAGTG reads 0.199; that for TGTGCGA, -0.0799.

As to CTATACC, the “uncleaved DNA left (log2)” value was -0.0407. The result for GGGTTCG reads -0.0112; that for TAAAGCT, -1.09.

Regarding ACTATCT, the “uncleaved DNA left (log2)” value was 0.0019.

Consider CATTAGT, for which the “uncleaved DNA left (log2)” value is -0.259.

Regarding TCGGACT, the “uncleaved DNA left (log2)” value worked out at 0.00593. Turning to ATGGCTT, the “uncleaved DNA left (log2)” value is 0.124. Consider AGTCAAT, for which the “uncleaved DNA left (log2)” value was 0.0074. Then ATATTGC, with -0.0729; and ATGGCGC, with 0.0142. Then TCAACAC, with 0.0123; and AAAGAGG, with 0.167. Then ACGCCTG, with 0.0697.

These data come from the supplement of paper PMC7826260.
